Test results from PubChem BioAssay AID488969 (Vanderbilt High Throughput Screening Facility, 2010).
In all, about 110,000 compounds were measured (“z-score”: median about -0.1, highest 2% from about 2 on). This is one part of the list. The source made the active and inactive calls.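 How the source made its calls: active means z-score in the third read window above 3 or below -3; inactive means the rest.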

target: Metabotropic glutamate receptor 8 (Rattus norvegicus) (UniProt P70579); assay: mGluR8 Gi/Go-coupled signaling modulation – cell-based, rat, thallium flux, HTS, primary screen (AID 488969); settings: HEK293 rat mGluR8, GIRK (G protein-gated inwardly rectifying potassium channel) thallium flux, FluoZin2; at 10 µM; stronger effect = higher value; submaximal glutamate (EC20) added with thallium
Chain of UniProt P70579 (P70579 whole entry, looked up): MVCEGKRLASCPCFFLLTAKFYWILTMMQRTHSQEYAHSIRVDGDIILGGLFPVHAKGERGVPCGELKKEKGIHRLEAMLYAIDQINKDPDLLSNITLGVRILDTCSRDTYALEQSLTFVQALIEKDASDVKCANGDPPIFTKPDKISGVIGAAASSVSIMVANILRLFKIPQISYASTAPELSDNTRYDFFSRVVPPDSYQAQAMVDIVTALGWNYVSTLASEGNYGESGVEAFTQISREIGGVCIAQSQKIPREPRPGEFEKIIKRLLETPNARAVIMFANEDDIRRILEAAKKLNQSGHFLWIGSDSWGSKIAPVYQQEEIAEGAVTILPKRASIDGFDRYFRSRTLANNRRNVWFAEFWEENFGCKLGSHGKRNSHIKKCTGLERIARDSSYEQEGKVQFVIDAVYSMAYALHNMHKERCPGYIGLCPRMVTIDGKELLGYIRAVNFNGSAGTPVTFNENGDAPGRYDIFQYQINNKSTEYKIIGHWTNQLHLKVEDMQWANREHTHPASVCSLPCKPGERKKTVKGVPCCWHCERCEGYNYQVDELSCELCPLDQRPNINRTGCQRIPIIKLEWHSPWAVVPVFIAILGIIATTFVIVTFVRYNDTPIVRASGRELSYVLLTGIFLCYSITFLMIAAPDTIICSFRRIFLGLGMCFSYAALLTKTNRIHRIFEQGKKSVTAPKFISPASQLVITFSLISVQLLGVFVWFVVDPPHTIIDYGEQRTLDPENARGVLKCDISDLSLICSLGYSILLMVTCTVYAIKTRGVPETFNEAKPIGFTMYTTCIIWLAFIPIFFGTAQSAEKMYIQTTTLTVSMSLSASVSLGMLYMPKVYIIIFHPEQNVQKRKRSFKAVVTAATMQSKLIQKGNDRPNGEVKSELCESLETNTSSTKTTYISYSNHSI

| Structure (SMILES) | z-score |
| --- | --- |
| CSc1nc2ccccc2n1CC(=O)Nc1cc(C(F)(F)F)ccc1N1CCOCC1 | -0.266 |
| Cc1ccc(Oc2nnc(-c3ccc(C)cc3)c3ccccc23)cc1 | -0.103 |
| Cc1cc(/C=N/n2cnnc2)c(C)n1-c1ccc(OCc2ccc(Cl)cc2)cc1 | 0.729 |
| NC(=O)CNC(=O)[C@@H]1CC2(CC(c3ccc(Cl)cc3)=NO2)CN1C(=O)c1ccccc1 (stereo not given in full) | -0.0997 |
| Cc1ccccc1OCC(=O)N(Cc1nc(-c2ccccc2)no1)C(C)C | -0.0322 |
| CC(=O)c1cn(CC(=O)NCc2ccc3c(c2)OCO3)c2ccccc12 | -0.0873 |
| COC(=O)c1nc2n(n1)C(c1cc(OC)ccc1OC)C(C(=O)OC1CCCCC1)=C(C)N2 (stereo not given) | 0.16 |
| COc1ccccc1C(=O)N1CCN(C(=O)COc2cccc(C)c2)CC1 | -0.231 |
| CCN(CC)CCn1c(NCc2nc3ccccc3n2Cc2ccccc2)nc2ccccc21 | 0.541 |
| COc1cccc(OCCOc2cccc(/C=N/n3cnnc3)c2)c1 | 0.022 |
| CCOC(=O)c1ccc(NC(=O)c2ccccc2)cc1 | -0.0754 |
| COc1ccc2c(c1)CCC(C)N2S(=O)(=O)c1ccc(C2CNC(=O)C2)cc1 (stereo not given) | -0.121 |
| COc1cc(/C=N/NC(N)=S)ccc1OCC(=O)Nc1ccc(C)cc1 | 0.0446 |
| CCOC(=O)c1c(NC(=O)c2noc3c2CCCC3)sc(C)c1C | -0.285 |
| COC(=O)Nc1ccc2c(c1)OCO2 | 1.44 |
| CS(=O)(=O)N(Cc1ccccc1)c1ccc(C(=O)Nc2ccccc2Sc2ccccc2)cc1 | 0.0136 |
| COc1ccc(/C(N)=N/OC(=O)Cc2ccc(C)cc2)cc1OC | -0.247 |
| OC(COc1ccccc1)Cn1c2ccccc2c2ccccc21 (stereo not given) | -0.0732 |
| Cc1cc(SCn2nnc3ccccc3c2=O)nc2ccccc12 | 0.222 |
| C=CCN(c1ccc(C(=O)NCCc2ccccc2)cc1)S(C)(=O)=O | -0.00787 |
| COc1ccc(N2C(=O)c3ccccc3NC2c2ccc(OC)c(CSc3ccccn3)c2)cc1 (stereo not given) | -0.0553 |
| Cc1ccc(-n2nnnc2C(=Cc2ccc(N(C)C)cc2)c2nnnn2-c2ccc(C)cc2)cc1 | -0.0997 |

| Structure (SMILES) | z-score |
| --- | --- |
| O=S(=O)(Nc1ccncc1)c1ccccc1 | 0.126 |
| Cc1ccc(Cn2ccc(NC(=O)c3cc(-c4ccco4)on3)n2)cc1 | 1.09 |
| O=C(NCc1ccccn1)C1CCN(S(=O)(=O)c2ccccc2)CC1 | 0.79 |
| Cc1cccc(-n2c(N)cc(=O)[nH]c2=S)c1C | 0.0226 |
| Cc1ccc2nc(N/N=C/c3ccccc3C#N)nc(-c3ccccc3)c2c1 | -0.305 |
| CCCCOc1nc(N)nc(-c2ccccc2)n1 | -0.634 |
| Cc1ccc(-n2c(SCC(=O)Nc3cccc(S(=O)(=O)NC4=NCCCCC4)c3)nc3ccccc3c2=O)cc1C | -0.262 |
| CN(Cc1ccccc1)C(=O)COC(=O)c1ccccc1Nc1ccccc1 | -0.216 |
| CCC(c1nnc(SCC(=O)Nc2nnc(-c3ccccc3)o2)o1)N(C)C (stereo not given) | -0.0751 |
| Cc1ccc(Oc2ccc(-c3nc(N)nc(N)n3)cc2)cc1C | -0.0713 |
| COCCNC(=O)c1ccccc1-c1ccccc1C(=O)O | 0.465 |
| CC(C)(C)c1ccc(S(=O)(=O)N2C=CC(C(F)(F)F)=NCC2)cc1 | -0.158 |
| COCCCNC(=O)C1CCCN(S(=O)(=O)c2ccc(C)cc2)C1 (stereo not given) | 0.386 |
| COc1cccc(C2=NOC(C(=O)Nc3ccccc3SC)C2)c1 (stereo not given) | -0.115 |
| CCN(CC)c1ccc(C(=O)O)cc1 | -0.133 |
| Fc1ccccc1-c1nc(N2CCCCC2)c2ccccc2n1 | -0.286 |
| Cc1[nH]n(-c2ccc(F)cc2)c(=O)c1/C=N/c1sc2c(c1C#N)CCCC2 | active: 13 |
| Cc1ccc(S(=O)(=O)NCC(=O)N2CCCCC2)cc1 | -0.17 |
| CC(=O)c1ccc(NC(=S)N(C)C2CCN(C)CC2)cc1 | -0.243 |
| CCNc1nc(NCC)nc(C(=O)Nc2ccccc2)n1 | -0.0479 |
| CC(C)Cc1nnc(NC(=O)c2ccncc2)s1 | -0.47 |
| O=C1CCCC(NCCCCCCNC2=C([N+](=O)[O-])C(=O)CCC2)=C1[N+](=O)[O-] | -0.199 |

| Structure (SMILES) | z-score |
| --- | --- |
| O=C1CCCC2=C1C(c1ccc(Br)cc1)c1c([nH]c(=S)[nH]c1=O)N2 (stereo not given) | 1.4 |
| CCOC(=O)Nc1cc2c(C)cc(=O)oc2cc1C | -0.027 |
| Cc1sc2ncnc(N3CCOCC3)c2c1C | -0.134 |
| O=S(=O)(NCCc1csc(-c2cccnc2)n1)c1ccc2c(c1)OCCO2 | -0.0667 |
| O=C(COC(=O)CCOc1ccccc1)NCc1ccco1 | 0.129 |
| Cc1cc(C)n(-c2nnc(C)n2NS(=O)(=O)c2ccc(F)cc2)n1 | -0.327 |
| CC(=O)c1c(OC(=O)c2ccc(C)cc2)c2ccccc2n1C | 0.478 |
| COCCCNC(=O)COc1ccc(S(=O)(=O)Nc2ccccc2)cc1 | 0.539 |
| c1ccc2c(-c3ccncc3)c[nH]c2c1 | -0.155 |
| CC(C)c1nc(SCc2c(F)cccc2Cl)c2c(=O)n(C)c(=O)n(C)c2n1 | -0.252 |
| Cc1c(NC(=O)CSc2cccc3cccnc23)c(=O)n(-c2ccccc2)n1C | 0.322 |
| COc1cccc(-c2nnc3sc(-c4ccccn4)nn23)c1 | -0.955 |
| CCOC(=O)C(NC(=O)Nc1ccc(F)cc1)(OCC)C(F)(F)F (stereo not given) | 0.0672 |
| CCCc1nnc(SCC(=O)N2CCCCC2)n1CCCOC | 0.239 |
| Cc1cc(N2CCC(C(=O)NC3CC3)CC2)nc(-c2ccccc2)n1 | 1.41 |
| COCCN(CCOC)C(=O)c1sc2nc(-c3ccccc3)cn2c1C | -0.267 |
| Cc1c(C(=O)Oc2cccc3ccccc23)cnn1-c1ccccc1 | -0.188 |
| O=C(N1CCCCC1)C12CC3CC(CC(C3)C1)C2 | 0.221 |
| O=C(NC1CCCCCCC1)C1c2ccccc2C(=O)N1Cc1cccs1 (stereo not given) | 0.201 |
| Cn1cc(S(=O)(=O)N2CCC(Cc3ccccc3)CC2)c(=O)n(C)c1=O | 0.186 |
| CCOC(=O)C1=C(C)Nc2ncnn2C1c1cc(OC)ccc1OC (stereo not given) | 0.212 |
| COc1ccc(C(CNC(=O)Cc2cc(OC)c(OC)c(OC)c2)N2CCCC2)cc1 (stereo not given) | 0.489 |

| Structure (SMILES) | z-score |
| --- | --- |
| CCN(CC)C(=O)CSc1nc(-c2cccs2)cc(-c2cccs2)c1C#N | 0.0765 |
| COc1cccc(NC(=O)C(=O)N/N=C/c2cc(C)n(-c3ccc(Cl)c(Cl)c3)c2C)c1 | -0.064 |
| Cc1ccc2occ(CN3CCN(c4ccccc4)CC3)c(=O)c2c1 | -1.51 |
| CCCC(=O)OCCNc1cc(Sc2nccn2C)c2nonc2c1[N+](=O)[O-] | -0.299 |
| O=C(COc1ccc(Cl)cc1Cl)NCC(=O)N/N=C/c1c[nH]c2ccccc12 | -0.355 |
| CCCCNC(C(=O)Nc1ccc([N+](=O)[O-])cc1Br)c1ccccc1 (stereo not given) | -0.247 |
| O=C(c1ccc(Cl)cc1)N(Cc1cccs1)C1CCS(=O)(=O)C1 (stereo not given) | -0.691 |
| Cc1ccc2nc3c(nc2c1)-c1ccccc1C3=O | 0.159 |
| Cc1ccc(S(=O)(=O)Cn2nnnc2CN(Cc2ccco2)CC2CCCO2)cc1 (stereo not given) | 0.699 |
| Cc1cc(C(=O)COC(=O)c2ccc[nH]c2=O)c(C)n1-c1ccc(F)cc1 | -0.134 |
| COCCn1c(=O)[nH]c2cc(C(=O)NCCN3CCN(c4cccc(Cl)c4)CC3)ccc2c1=O | -0.723 |
| COc1ccc(CC(=O)NC(=S)Nc2ccc(S(=O)(=O)NC(C)(C)C)cc2)cc1 | 0.142 |
| Cc1occc1C(=O)Nc1cc(C(F)(F)F)ccc1Cl | -0.0378 |
| COc1ccc(Cl)cc1C(=O)NNC(=S)NC(=O)c1cc(-c2ccc(Cl)cc2)nc2ccccc12 | 0.219 |
| Cc1nn(-c2ccccc2)c(C)c1/C=N/n1c(-c2ccc(Cl)cc2)n[nH]c1=S | 0.338 |
| COC(=O)c1sc(NC(=O)CSc2nnc(Cn3nnc4ccccc43)n2C)nc1C | 0.0796 |
| Cc1ccn2c(C(=O)CSc3ccccc3Cl)c(C)nc2c1 | -0.0109 |
| CC1Cc2ccccc2N1C(=O)C12CCC(C)(C(=O)C1)C2(C)C (stereo not given) | -0.11 |
| COc1cccc(OC)c1OCCOCCn1cnc2ccccc2c1=O | -0.56 |
| O=C(CSc1n[nH]c(-c2ccccc2)n1)Nc1ncc(Br)cc1Br | -0.296 |
| COc1ccc(NC(=O)CC2(Cc3ccccc3)CCOC(C)(C)C2)cc1 (stereo not given) | -0.323 |
| CCOC(=O)CSc1nc(C)nc2c1sc1nc(C)c(C(C)=O)c(-c3ccc(OC)cc3)c12 | 1.29 |

| Structure (SMILES) | z-score |
| --- | --- |
| CCC(=O)Nc1nc2c(s1)COc1ccccc1-2 | 0.0756 |
| Cc1cc2nnc(SC(C)C)n2c2ccccc12 | -1.9 |
| Cc1cc([N+](=O)[O-])ccc1NC1CCCC1 | -0.214 |
| COc1ccc(N2CCN(c3nc4ccccn4c(=O)c3C=O)CC2)cc1 | -0.125 |
| CC1CCCN(C(=O)CCS(=O)(=O)Cc2ccccc2)C1 (stereo not given) | -0.127 |
| CC(C)OCCCN1CN(S(=O)(=O)c2cccc(Cl)c2)c2nc3ccccc3nc21 | -0.386 |
| CC(=O)c1nn(-c2cccc(Br)c2)cc1C(=O)c1ccc(C)cc1 | 0.00622 |
| CCOC(=O)CNC(=O)c1cccnc1 | 0.114 |
| O=c1[nH]cnc2scc(-c3ccc(F)cc3)c12 | -0.0775 |
| COc1ccc(-c2noc(CSc3nc(N)c(-c4ccccc4)c(=O)[nH]3)n2)cc1OC | 0.24 |
| C=CCNc1nnc(-c2ccncc2)s1 | -0.222 |
| CCn1c(C(C)NC(=O)c2ccc(OC)c(OC)c2)nc2ccccc21 (stereo not given) | 0.719 |
| Cn1cccc1CNC(=O)Nc1ccc(Cl)c(Cl)c1 | 0.356 |
| CCC(=O)Nc1nonc1-c1nc2ccccc2n1Cc1cccc2ccccc12 | 0.857 |
| CSc1ccccc1C(=O)Nc1cccc(C)c1 | -0.792 |
| COc1ccc(N2C(=O)C3C4C=CC(CC4)C3C2=O)c([N+](=O)[O-])c1 (stereo not given) | -0.215 |
| CCN(C(=O)COC(=O)c1cc(-c2ccc3cc(OC)ccc3c2)nc2ccccc12)C1CCS(=O)(=O)C1 (stereo not given) | -0.33 |
| Cc1ccc(/C=N/n2c(C)cc(C)c(C#N)c2=O)cc1 | -0.313 |
| COc1cc2c(cc1NC(=O)/C=C/c1ccccc1)oc1ccccc12 | -0.194 |
| CC(C)C(OC(=O)c1nsc(Cl)c1Cl)C(=O)NCc1ccc2c(c1)OCO2 (stereo not given) | -0.236 |
| CC1CN(S(=O)(=O)c2ccc(C(=O)Nc3ccc(S(=O)(=O)Nc4nccs4)cc3)cc2)CC(C)O1 (stereo not given) | -0.166 |
| N#Cc1c(-c2ccccc2)cc(C2CC2)nc1SCC(=O)c1cccs1 | 0.168 |
